Data on four molecules can be found in paper PMC8572914.

Sequences of proteins named here, by UniProt entry; tags and fusion partners are left off.
UniProt P56450: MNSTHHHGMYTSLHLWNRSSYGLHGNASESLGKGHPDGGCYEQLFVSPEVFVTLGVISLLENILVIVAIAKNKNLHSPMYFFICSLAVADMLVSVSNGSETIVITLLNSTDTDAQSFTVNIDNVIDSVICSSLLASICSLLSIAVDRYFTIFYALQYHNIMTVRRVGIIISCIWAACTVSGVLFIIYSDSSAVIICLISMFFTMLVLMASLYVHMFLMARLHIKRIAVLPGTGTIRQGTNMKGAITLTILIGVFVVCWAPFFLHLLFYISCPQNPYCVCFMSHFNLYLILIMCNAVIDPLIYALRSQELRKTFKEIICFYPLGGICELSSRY
UniProt P61168: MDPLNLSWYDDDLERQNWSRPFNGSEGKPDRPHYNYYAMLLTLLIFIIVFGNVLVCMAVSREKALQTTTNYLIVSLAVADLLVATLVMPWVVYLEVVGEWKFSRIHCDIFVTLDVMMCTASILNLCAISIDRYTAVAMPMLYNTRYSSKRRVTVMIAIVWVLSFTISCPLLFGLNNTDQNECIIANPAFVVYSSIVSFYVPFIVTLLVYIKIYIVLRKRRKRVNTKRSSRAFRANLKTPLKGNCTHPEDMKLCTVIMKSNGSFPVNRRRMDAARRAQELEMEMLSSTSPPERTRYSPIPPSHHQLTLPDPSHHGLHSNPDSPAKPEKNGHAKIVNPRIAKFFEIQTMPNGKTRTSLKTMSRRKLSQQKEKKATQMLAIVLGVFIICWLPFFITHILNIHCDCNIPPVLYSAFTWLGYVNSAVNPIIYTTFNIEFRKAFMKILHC

Results are given in words; binding and its absence hold for the method and conditions named. In cells and extracts the contact can be indirect. Some entries that bind do so weakly or less than the wild type. Where a sequence is shown, tags or fusion partners need not be part of it.

In assay [1] the target is 3HA-tagged mouse melanocortin-4 receptor (mouse) (UniProt P56450). Kind of assay: co-IP; HEK293 cells co-transfected with 3HA-MC4R or 3HA-D2dr and 2FLAG-MRAP2 variants or 2FLAG-RAMP3; MRAP2 variants and RAMP3 detected with mouse anti-Flag antibody; beads only as control.
Assay [2] deals with 3HA-tagged dopamine receptor D2 (UniProt P61168). Described as above.
Assay [3] concerns the target mouse MRAP2 variant V (N- and C-terminal transposition), 2FLAG-tagged / 3HA-tagged (mouse) (UniProt D3Z1Q2). Kind of assay: co-IP; HEK293T cells co-transfected with 2FLAG-tagged and 3HA-tagged copies of one variant at a ratio of 1:1; lysate incubated with mouse anti-HA or anti-FLAG overnight at 4°C, protein A+G agarose beads; Western blot.
In assay [4] the target is FLAG-MC4R-VF2 (mouse melanocortin-4 receptor with Venus fragment VF2) (mouse) (UniProt P56450). The assay can be described thus: split reporter; BiFC: VF1-X and FLAG-MC4R-VF2 co-transfected in HEK293T cells; fixed 24 h after transfection, confocal microscopy.
Assay [5] concerns the target mouse MRAP2 variant V (N- and C-terminal transposition) with Venus fragment (VF1-X / FLAG-X-VF2) (mouse) (UniProt D3Z1Q2). The assay can be described thus: split reporter; BiFC: VF1-X and FLAG-X-VF2 (Venus fragments on opposite ends of MRAP2 or its variants) co-transfected in HEK293T cells; fixed 24 h after transfection, confocal microscopy.
Assay [6] has as its target wild-type mouse MRAP2 with Venus fragment (VF1-MRAP2 / FLAG-MRAP2-VF2) (mouse) (UniProt D3Z1Q2). Described as above.

B1: 2FLAG-tagged RAMP3 (protein, UniProt Q9WUP1 23-147)
chain: QVCGCNETGMLERLPRCGKAFADMMQKVAVWKWCNLSEFIVYYESFTNCTEMETNIMGCYWPNPLAQSFITGIHRQFFSNCTVDRTHWEDPPDEVLIPLIAVPVVLTVAMAGLVVWRSKHTDRLL
Take B1: the binding entry in assay [1] is recorded as “no binding”.

B2: mouse MRAP2 variant V (N- and C-terminal transposition), 2FLAG-tagged / 3HA-tagged (protein, UniProt D3Z1Q2 68-207; D3Z1Q2 47-67; D3Z1Q2 1-46)
chain: LLTKTGAPHQDNAESSERRFRMNSFVSDFGKPLESDKVFSRQGNEESRSLFHCYINEVEHLDRVKVCHQTTAIDSDVHLQEASRSSGRPEEELARFMKFDIPNFVNTEQSSFGEDDLLISEAPVLLENKPVSQTSRIDLDIVIGFWVGLAVFVIFMFFVLTMEMSAQRLASNRTSPQSPSNSDYTWEYEYYEIGPVSFEGLKAHKYS
On to B2, for which the binding result in assay [2] was “no binding”; in assay [1], “binds”; in assay [3], “binds”.

B3: mouse MRAP2 variant V (N- and C-terminal transposition) with Venus fragment (VF1-X / FLAG-X-VF2) (protein, UniProt D3Z1Q2 68-207; D3Z1Q2 47-67; D3Z1Q2 1-46)
chain: LLTKTGAPHQDNAESSERRFRMNSFVSDFGKPLESDKVFSRQGNEESRSLFHCYINEVEHLDRVKVCHQTTAIDSDVHLQEASRSSGRPEEELARFMKFDIPNFVNTEQSSFGEDDLLISEAPVLLENKPVSQTSRIDLDIVIGFWVGLAVFVIFMFFVLTMEMSAQRLASNRTSPQSPSNSDYTWEYEYYEIGPVSFEGLKAHKYS
For B3, the binding result in assay [4] and in assay [5] was “binds” in each case.

B4: wild-type mouse MRAP2 with Venus fragment (VF1-MRAP2 / FLAG-MRAP2-VF2) (protein, UniProt D3Z1Q2 1-207)
chain: MEMSAQRLASNRTSPQSPSNSDYTWEYEYYEIGPVSFEGLKAHKYSIVIGFWVGLAVFVIFMFFVLTLLTKTGAPHQDNAESSERRFRMNSFVSDFGKPLESDKVFSRQGNEESRSLFHCYINEVEHLDRVKVCHQTTAIDSDVHLQEASRSSGRPEEELARFMKFDIPNFVNTEQSSFGEDDLLISEAPVLLENKPVSQTSRIDLD
On to B4, for which the binding entry in assay [4] and in assay [6] was “binds” in each case.
